# Source: the supplement of paper PMC8728848
# The other results are listed elsewhere or left out.
# B1: EULS2 M4 (Oryza sativa) (protein)
# chain: MVYCRANPNYAMTARNGAVVLAPANPKDEYQHWIKDMRWSTSIKDEEGYPAFALVNKATGQAIKHSLGQSHPVRLVPYNPEVMDESVLWTESRDVGNGFRCIRMVNNIYLNFDAFHGDKYHGGVRDGTDIVLWKWCEGDSLRWKIQPYYILEQKLISEEDLNSAVDHHHHHH
# Key:
# Test in all cases: glycan array binding signal (z-score within array); higher = stronger binding
# Conditions in all cases: glycan notation: IUPAC condensed, linker removed
# [1] = molecular target: Fuc(a1-2)Gal6S(b1-3)GlcNAc6S
# Method in brief: (§1)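 The binding signal is a Z-score computed within each array. Data were drawn from 3228 arrays in the Consortium for Functional Glycomics database, restricted to those with a known protein sequence. Scores were averaged over arrays of the same protein sequence at different concentrations or buffers, and over linkers, and negative values can be taken as non-binding.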
# Fuc(a1-2)Gal6S(b1-4)Glc = molecular target: Fuc(a1-2)Gal6S(b1-4)Glc
# Method in brief: as §1
# [2] = molecular target: Fuc(a1-2)Gal6S(b1-4)Glc6S
# Method in brief: as §1
# Fuc(a1-2)[Gal(a1-3)]Gal = molecular target: Fuc(a1-2)[Gal(a1-3)]Gal
# Method in brief: as §1
# [3] = molecular target: Fuc(a1-2)[Gal(a1-3)]Gal(b1-3)GalNAc
# Method in brief: as §1
# [4] = molecular target: Fuc(a1-2)[Gal(a1-3)]Gal(b1-3)GalNAc(b1-3)Gal(a1-4)Gal(b1-4)Glc
# Method in brief: as §1
# [5] = molecular target: Fuc(a1-2)[Gal(a1-3)]Gal(b1-3)GlcNAc
# Method in brief: as §1
# [6] = molecular target: Fuc(a1-2)[Gal(a1-3)]Gal(b1-3)GlcNAc(b1-2)Man(a1-3)[Fuc(a1-2)[Gal(a1-3)]Gal(b1-3)GlcNAc(b1-2)Man(a1-6)]Man(b1-4)GlcNAc(b1-4)GlcNAc
# Method in brief: as §1
# [7] = molecular target: Fuc(a1-2)[Gal(a1-3)]Gal(b1-3)GlcNAc(b1-2)Man(a1-3)[Fuc(a1-2)[Gal(a1-3)]Gal(b1-3)GlcNAc(b1-2)Man(a1-6)]Man(b1-4)GlcNAc(b1-4)[Fuc(a1-6)]GlcNAc
# Method in brief: as §1
# [8] = molecular target: Fuc(a1-2)[Gal(a1-3)]Gal(b1-3)GlcNAc(b1-3)GalNAc
# Method in brief: as §1
# [9] = molecular target: Fuc(a1-2)[Gal(a1-3)]Gal(b1-3)GlcNAc(b1-6)GalNAc
# Method in brief: as §1
# [10] = molecular target: Fuc(a1-2)[Gal(a1-3)]Gal(b1-4)Glc
# Method in brief: as §1
# [11] = molecular target: Fuc(a1-2)[Gal(a1-3)]Gal(b1-4)GlcNAc
# Method in brief: as §1
# [12] = molecular target: Fuc(a1-2)[Gal(a1-3)]Gal(b1-4)GlcNAc(b1-2)Man
# Method in brief: as §1
# [13] = molecular target: Fuc(a1-2)[Gal(a1-3)]Gal(b1-4)GlcNAc(b1-2)Man(a1-3)[Fuc(a1-2)[Gal(a1-3)]Gal(b1-4)GlcNAc(b1-2)Man(a1-6)]Man(b1-4)GlcNAc(b1-4)GlcNAc
# Method in brief: as §1
# [14] = molecular target: Fuc(a1-2)[Gal(a1-3)]Gal(b1-4)GlcNAc(b1-2)Man(a1-3)[Fuc(a1-2)[Gal(a1-3)]Gal(b1-4)GlcNAc(b1-2)Man(a1-6)]Man(b1-4)GlcNAc(b1-4)[Fuc(a1-6)]GlcNAc
# Method in brief: as §1
# [15] = molecular target: Fuc(a1-2)[Gal(a1-3)]Gal(b1-4)GlcNAc(b1-3)GalNAc
# Method in brief: as §1
# [16] = molecular target: Fuc(a1-2)[Gal(a1-3)]Gal(b1-4)GlcNAc(b1-3)[Fuc(a1-2)[Gal(a1-3)]Gal(b1-4)GlcNAc(b1-6)]GalNAc
# Method in brief: as §1
# [17] = molecular target: Fuc(a1-2)[Gal(a1-3)]Gal(b1-4)GlcNAc(b1-6)GalNAc
# Method in brief: as §1
# [18] = molecular target: Fuc(a1-2)[Gal(a1-3)]Gal(b1-4)[Fuc(a1-3)]Glc
# Method in brief: as §1
# [19] = molecular target: Fuc(a1-2)[Gal(a1-3)]Gal(b1-4)[Fuc(a1-3)]GlcNAc
# Method in brief: as §1
# [20] = molecular target: Fuc(a1-2)[Gal(a1-3)]Gal(b1-4)[Fuc(a1-3)]GlcNAc(b1-3)GalNAc
# Method in brief: as §1
# [21] = molecular target: Fuc(a1-2)[Gal(a1-4)]Gal(b1-4)GlcNAc
# Method in brief: as §1
# [22] = molecular target: Fuc(a1-2)[GalNAc(a1-3)]Gal
# Method in brief: as §1
# [23] = molecular target: Fuc(a1-2)[GalNAc(a1-3)]Gal(b1-3)GalNAc(a1-3)[Fuc(a1-2)]Gal(b1-4)GlcNAc
# Method in brief: as §1
# [24] = molecular target: Fuc(a1-2)[GalNAc(a1-3)]Gal(b1-3)GalNAc(b1-3)Gal(a1-4)Gal(b1-4)Glc
# Method in brief: as §1
# [25] = molecular target: Fuc(a1-2)[GalNAc(a1-3)]Gal(b1-3)GlcNAc
# Method in brief: as §1
# [26] = molecular target: Fuc(a1-2)[GalNAc(a1-3)]Gal(b1-3)GlcNAc(b1-2)Man(a1-3)[Fuc(a1-2)[GalNAc(a1-3)]Gal(b1-3)GlcNAc(b1-2)Man(a1-6)]Man(b1-4)GlcNAc(b1-4)GlcNAc
# Method in brief: as §1
# [27] = molecular target: Fuc(a1-2)[GalNAc(a1-3)]Gal(b1-3)GlcNAc(b1-2)Man(a1-3)[Fuc(a1-2)[GalNAc(a1-3)]Gal(b1-3)GlcNAc(b1-2)Man(a1-6)]Man(b1-4)GlcNAc(b1-4)[Fuc(a1-6)]GlcNAc
# Method in brief: as §1
# [28] = molecular target: Fuc(a1-2)[GalNAc(a1-3)]Gal(b1-3)GlcNAc(b1-3)GalNAc
# Method in brief: as §1
# [29] = molecular target: Fuc(a1-2)[GalNAc(a1-3)]Gal(b1-3)GlcNAc(b1-6)GalNAc
# Method in brief: as §1
# [30] = molecular target: Fuc(a1-2)[GalNAc(a1-3)]Gal(b1-4)Glc
# Method in brief: as §1
# [31] = molecular target: Fuc(a1-2)[GalNAc(a1-3)]Gal(b1-4)GlcNAc
# Method in brief: as §1
# [32] = molecular target: Fuc(a1-2)[GalNAc(a1-3)]Gal(b1-4)GlcNAc(b1-2)Man
# Method in brief: as §1
# [33] = molecular target: Fuc(a1-2)[GalNAc(a1-3)]Gal(b1-4)GlcNAc(b1-2)Man(a1-3)[Fuc(a1-2)[GalNAc(a1-3)]Gal(b1-4)GlcNAc(b1-2)Man(a1-6)]Man(b1-4)GlcNAc(b1-4)GlcNAc
# Method in brief: as §1
# [34] = molecular target: Fuc(a1-2)[GalNAc(a1-3)]Gal(b1-4)GlcNAc(b1-2)Man(a1-3)[Fuc(a1-2)[GalNAc(a1-3)]Gal(b1-4)GlcNAc(b1-2)Man(a1-6)]Man(b1-4)GlcNAc(b1-4)[Fuc(a1-6)]GlcNAc
# Method in brief: as §1
# [35] = molecular target: Fuc(a1-2)[GalNAc(a1-3)]Gal(b1-4)GlcNAc(b1-3)Gal(b1-4)GlcNAc
# Method in brief: as §1
# [36] = molecular target: Fuc(a1-2)[GalNAc(a1-3)]Gal(b1-4)GlcNAc(b1-3)Gal(b1-4)GlcNAc(b1-3)Gal(b1-4)GlcNAc
# Method in brief: as §1
# [37] = molecular target: Fuc(a1-2)[GalNAc(a1-3)]Gal(b1-4)GlcNAc(b1-3)GalNAc
# Method in brief: as §1
# [38] = molecular target: Fuc(a1-2)[GalNAc(a1-3)]Gal(b1-4)GlcNAc(b1-3)[Fuc(a1-2)[GalNAc(a1-3)]Gal(b1-4)GlcNAc(b1-6)]GalNAc
# Method in brief: as §1
# [39] = molecular target: Fuc(a1-2)[GalNAc(a1-3)]Gal(b1-4)GlcNAc(b1-6)GalNAc
# Method in brief: as §1
# [40] = molecular target: Fuc(a1-2)[GalNAc(a1-3)]Gal(b1-4)[Fuc(a1-3)]GlcNAc
# Method in brief: as §1
# [41] = molecular target: Fuc(a1-2)[GalNAc(a1-3)]Gal(b1-4)[Fuc(a1-3)]GlcNAc(b1-3)GalNAc
# Method in brief: as §1
# [42] = molecular target: Fuc(a1-2)[GalNAc(a1-4)]Gal(b1-4)GlcNAc
# Method in brief: as §1
# [43] = molecular target: Fuc(a1-2)[GalNAc(b1-3)]Gal
# Method in brief: as §1
binder,measurement,setting,value
B1,glycan array binding signal (z-score),[1],-0.078
same,glycan array binding signal (z-score),Fuc(a1-2)Gal6S(b1-4)Glc,-0.539
same,glycan array binding signal (z-score),[2],1.14
same,glycan array binding signal (z-score),Fuc(a1-2)[Gal(a1-3)]Gal,-0.474
same,glycan array binding signal (z-score),[3],-0.015
same,glycan array binding signal (z-score),[4],-0.596
same,glycan array binding signal (z-score),[5],0.663
same,glycan array binding signal (z-score),[6],-0.597
same,glycan array binding signal (z-score),[7],-0.336
same,glycan array binding signal (z-score),[8],0.259
same,glycan array binding signal (z-score),[9],-0.272
same,glycan array binding signal (z-score),[10],1.83
same,glycan array binding signal (z-score),[11],-0.032
same,glycan array binding signal (z-score),[12],-0.562
same,glycan array binding signal (z-score),[13],-0.435
same,glycan array binding signal (z-score),[14],-0.402
same,glycan array binding signal (z-score),[15],-0.467
same,glycan array binding signal (z-score),[16],1.24
same,glycan array binding signal (z-score),[17],-0.289
same,glycan array binding signal (z-score),[18],-0.09
same,glycan array binding signal (z-score),[19],1.49
same,glycan array binding signal (z-score),[20],1.57
same,glycan array binding signal (z-score),[21],0.658
same,glycan array binding signal (z-score),[22],-0.348
same,glycan array binding signal (z-score),[23],0.21
same,glycan array binding signal (z-score),[24],-0.473
same,glycan array binding signal (z-score),[25],0.527
same,glycan array binding signal (z-score),[26],0.515
same,glycan array binding signal (z-score),[27],-0.456
same,glycan array binding signal (z-score),[28],-0.261
same,glycan array binding signal (z-score),[29],1
same,glycan array binding signal (z-score),[30],-0.23
same,glycan array binding signal (z-score),[31],-0.045
same,glycan array binding signal (z-score),[32],-0.183
same,glycan array binding signal (z-score),[33],-0.504
same,glycan array binding signal (z-score),[34],2.32
same,glycan array binding signal (z-score),[35],-0.459
same,glycan array binding signal (z-score),[36],-0.378
same,glycan array binding signal (z-score),[37],-0.304
same,glycan array binding signal (z-score),[38],-0.38
same,glycan array binding signal (z-score),[39],-0.305
same,glycan array binding signal (z-score),[40],-0.416
same,glycan array binding signal (z-score),[41],-0.529
same,glycan array binding signal (z-score),[42],-0.407
same,glycan array binding signal (z-score),[43],0.02
